Data reported in patent US5854216A, “Marker for growth hormone-releasing factor receptors” (Universite de Montreal, priority 1996, dated 1998).
Part of at least one peptide drawing is inferred or uncertain, most often the ends. Some compounds share one wording; it may come from a single statement. For at least one compound, name, drawing or mass did not settle the structure. Square brackets hold non-standard residues; d marks the D form. Peptide text beside a SMILES is read from it.

Molecular target: T1, GRF receptors ([^125 I-Tyr^10 ]hGRF(1-44)NH2 binding sites in rat adenopituitary) (Rattus norvegicus, UniProt Q02644)
T1 construct: from tissue; host or cells: rat anterior pituitary homogenate
T1 sequence (Q02644 23-423 isoform Q02644-2 limits assumed): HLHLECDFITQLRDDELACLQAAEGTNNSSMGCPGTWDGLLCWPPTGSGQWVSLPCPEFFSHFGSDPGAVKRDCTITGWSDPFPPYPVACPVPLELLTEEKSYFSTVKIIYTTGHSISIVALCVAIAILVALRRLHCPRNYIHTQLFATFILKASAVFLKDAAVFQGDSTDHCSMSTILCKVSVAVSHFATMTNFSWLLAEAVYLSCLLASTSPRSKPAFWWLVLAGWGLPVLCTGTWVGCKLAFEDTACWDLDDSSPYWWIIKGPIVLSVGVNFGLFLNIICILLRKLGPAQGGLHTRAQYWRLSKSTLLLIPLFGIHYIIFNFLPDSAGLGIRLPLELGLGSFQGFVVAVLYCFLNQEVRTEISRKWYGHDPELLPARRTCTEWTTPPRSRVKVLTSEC
Assay: Competitive binding assay with [^125 I-Tyr^10 ]hGRF(1-44)NH2 on anterior pituitary homogenates
Settings: for Relative affinity: ratio IC50 of hGRF(1-29)NH2 /IC50 analogue; for biological activity compared to that of native GRF: rat adenopituitary
Protocol: The binding of [^125 I-Tyr^10 ]hGRF(1-44)NH2 was performed on anterior pituitary homogenates as previously described (Gaudreau P. et al., J. Biol. Chem., 1992, 35:1864-1869). Briefly, anterior pituitaries (pit.) were dissected out, rinsed and homogenized for 8 sec with a Micro Ultrasonic Cell Disrupter™, in ice-cold 50 mM Tris-HCl buffer, pH 7.4, containing 5 mM MgCl2 and 5 mM EDTA (1 pit./0.5 ml). These homogenates were used immediately. Competition studies were performed using 35-50 pM [^125 I-Tyr^10 ]hGRF(1-44)NH2 as radio-ligand,50 μl of homogenate (70 to 75 μg of protein), and increasing concentrations of Nε-CF-[Lys^31 ]hGRF or other GRF analogues (0-1000 nM) or with 2.4 μM rGRF(1-29)NH2 for determination of non-specific binding, in a total volume of 300 μl of Tris-HCl buffer, pH 7.4, containing 5 mM EDTA, 5 mM MgCl2 and 0.42% BSA. Incubations were carried out at 23° C. for 60 min and stopped by centrifugation (12,000 g, 5 min, at 4° C.). The radioactivity content in the pellet was measured by gamma counting. The affinity of hGRF(1-29)NH2 was tested in each experiment to assess the validity of the assay and determine the relative affinity of the analogues. […] The Hill values indicate that all these peptides bind to the high and low affinity GRF binding sites found in the anterior pituitary.

SMILES | IC50 (Table 11, mean±SD of 2 or mean±SE of 3 experiments for analogues, mean±SE of 11 for hGRF(1-29)NH2) | Hill coef. (Table 11) | Relative affinity (Table 11) | biological activity compared to that of native GRF
CC[C@H](C)[C@H](NC(=O)[C@H](C)NC(=O)[C@H](CC(=O)O)NC(=O)[C@@H](C)NC(=O)[C@@H](N)Cc1ccc(O)cc1)C(=O)N[C@@H](Cc1ccccc1)C(=O)N[C@H](C(=O)N[C@@H](C)C(=O)N[C@@H](CO)C(=O)N[C@H](Cc1ccc(O)cc1)C(=O)N[C@@H](CCCNC(=N)N)C(=O)N[C@@H](CCCCN)C(=O)N[C@H](C(=O)N[C@@H](CC(C)C)C(=O)N[C@@H](C)C(=O)N[C@@H](CCC(N)=O)C(=O)N[C@@H](CC(C)C)C(=O)N[C@@H](CO)C(=O)N[C@@H](C)C(=O)N[C@@H](CCCNC(=N)N)C(=O)N[C@H](CCCCN)C(=O)N[C@@H](CCCCN)C(=O)N[C@@H](CC(C)C)C(=O)N[C@@H](CCC(N)=O)C(=O)N[C@@H](CC(=O)O)C(=O)N[C@H](C(=O)N[C@@H](CCSC)C(=O)N[C@@H](CO)C(=O)N[C@@H](CCCNC(=N)N)C(N)=O)[C@@H](C)CC)C(C)C)[C@@H](C)O (H-Y[dA]DAIFTAS[dY]RKVLAQLSAR[dK]KLQDIMSR-NH2) | 0.48 ± 0.1 nM |  |  | 
CC[C@H](C)[C@H](NC(=O)[C@H](C)NC(=O)[C@H](CC(=O)O)NC(=O)[C@@H](C)NC(=O)[C@@H](N)Cc1ccc(O)cc1)C(=O)N[C@@H](Cc1ccccc1)C(=O)N[C@H](C(=O)N[C@@H](CC(N)=O)C(=O)N[C@@H](CO)C(=O)N[C@H](Cc1ccc(O)cc1)C(=O)N[C@@H](CCCNC(=N)N)C(=O)N[C@@H](CCCCN)C(=O)N[C@H](C(=O)N[C@@H](CC(C)C)C(=O)N[C@H](C)C(=O)N[C@@H](CCC(N)=O)C(=O)N[C@@H](CC(C)C)C(=O)N[C@@H](CO)C(=O)N[C@@H](C)C(=O)N[C@@H](CCCNC(=N)N)C(=O)N[C@@H](CCCCN)C(=O)N[C@@H](CCCCN)C(=O)N[C@@H](CC(C)C)C(=O)N[C@@H](CCC(N)=O)C(=O)N[C@@H](CC(=O)O)C(=O)N[C@H](C(=O)N[C@@H](CCSC)C(=O)N[C@@H](CO)C(=O)N[C@@H](CCCNC(=N)N)C(N)=O)[C@@H](C)CC)C(C)C)[C@@H](C)O [D-Ala^2, D-Tyr^10, D-Ala^15, Lys^22] (H-Y[dA]DAIFTNS[dY]RKVL[dA]QLSARKKLQDIMSR-NH2) |  | 0.52 ± 0.06 | 104 ± 40% | preserved or increased
CC[C@H](C)[C@H](NC(=O)[C@H](C)NC(=O)[C@H](CC(=O)O)NC(=O)[C@@H](C)NC(=O)[C@@H](N)Cc1ccc(O)cc1)C(=O)N[C@@H](Cc1ccccc1)C(=O)N[C@H](C(=O)N[C@@H](CC(N)=O)C(=O)N[C@@H](CO)C(=O)N[C@H](Cc1ccc(O)cc1)C(=O)N[C@@H](CCCNC(=N)N)C(=O)N[C@@H](CCCCN)C(=O)N[C@H](C(=O)N[C@@H](CC(C)C)C(=O)NCC(=O)N[C@@H](CCC(N)=O)C(=O)N[C@@H](CC(C)C)C(=O)N[C@@H](CO)C(=O)N[C@@H](C)C(=O)N[C@@H](CCCNC(=N)N)C(=O)N[C@@H](CCCCN)C(=O)N[C@@H](CCCCN)C(=O)N[C@@H](CC(C)C)C(=O)N[C@@H](CCC(N)=O)C(=O)N[C@@H](CC(=O)O)C(=O)N[C@H](C(=O)N[C@@H](CCSC)C(=O)N[C@@H](CO)C(=O)N[C@@H](CCCNC(=N)N)C(N)=O)[C@@H](C)CC)C(C)C)[C@@H](C)O [D-Ala^2, D-Tyr^10, Lys^22] (H-Y[dA]DAIFTNS[dY]RKVLGQLSARKKLQDIMSR-NH2) |  | 0.62 ± 0.06 | 490 ± 270% | preserved or increased
